Out of some 150,000 compounds screened, about 540 (0.36%) showed an effect of 50% or more. The list shows a part of the results.

As usually defined, the % Inhibition is the change of the read-out against control, counted positive when it falls.

This assay deals with Plasmodium falciparum. Description: Primary screen in NF54 nanoGlo assay, in single point, at 2uM, 72h; a lower Z score goes with more inhibition. The assay is classed as functional, Erythrocyte. The conditions noted are these: timepoint 72 hour.
For the compound `Cc1cccc(C(=O)N2CCC(CC3CC3)(c3noc(C4CCOCC4)n3)CC2)n1`, the “% Inhibition” value is -13% and the Z score was determined as 1.73.

`Cc1n[nH]cc1CNC(=O)C[C@@H]1C=CCC1`: the “% Inhibition” value was -12% and the Z score came to 1.2.

Consider `Cc1ccc(-c2nc(N)c(C#N)c(-c3cn(CCO)nc3C)c2C)cc1`, for which the “% Inhibition” value worked out at 4% and the Z score is recorded as -0.76.

Turning to `Clc1cc2c(cc1Br)CCN2`, the “% Inhibition” value was 3% and the Z score is on record as -0.46.

`Cc1nc(CC(=O)Nc2nc(-c3ccc(OC(C)C)cc3)cs2)cs1`: the “% Inhibition” value was -15% and the Z score stood at 1.32.

As to `CCOc1cccc(N2C(=O)CC(N3CCN(C4CC(=O)N(c5cccc(OCC)c5)C4=O)CC3)C2=O)c1` (stereo not given), the “% Inhibition” value is reported as -9% and the Z score stood at 1.18.

As to `Cc1ccc([C@H](C)NC(=O)NCC(=O)NCC2CC2)cc1F`, the “% Inhibition” value was -1% and the Z score is given as 0.13.

As for `CO[C@@H](CS(=O)(=O)Nc1c(C)cc(C)cc1C(=O)O)C(C)C`, the “% Inhibition” value was -6% and the Z score came out at 0.98.

With `FC(F)CN1CCC(N[C@H]2CCCc3sccc32)CC1`, the “% Inhibition” value is recorded as -13% and the Z score was found to be 1.73.

As to `Cc1nc2c(s1)c(C)nn2-c1ccccc1`, the “% Inhibition” value was 8% and the Z score is reported as -1.35.

For the compound `Cc1ccc(Nc2nc(NCCCOC(C)C)nc3[nH]nnc23)cc1`, the “% Inhibition” value is -8% and the Z score was found to be 1.24.

In the case of `CN(Cc1[nH]c2ccccc2c1Cl)C[C@H]1CCOC1`, the “% Inhibition” value is on record as -9% and the Z score worked out at 1.54.

In the case of `O=C(c1nc2ccccc2[nH]1)N1C[C@@H]2CC[C@H]1CN(Cc1ccccc1)C2`, the “% Inhibition” value was -7% and the Z score was determined as 1.39.

For the compound `Cc1nnc2n1C[C@@H](Nc1ncc(C(F)(F)F)cc1Cl)CC2`, the “% Inhibition” value was -10% and the Z score came to 1.13.

Take `O=c1n(Cc2ccccc2)c2ccncc2n1Cc1ccccn1`: the “% Inhibition” value is 6% and the Z score is -0.84.

On to `Cc1ccc(S(=O)(=O)Nc2nc(C)c(C)c(=O)[nH]2)cc1`, for which the “% Inhibition” value is recorded as -2% and the Z score is 0.28.

Regarding `CC(C)(C)NC(=O)N1CC[C@H](n2c(-c3ccco3)nc3cccnc32)C1`, the “% Inhibition” value is on record as -16% and the Z score is 1.79.

`Cc1ccccc1OC1CN(Cc2cncn2C)C1`: the “% Inhibition” value is listed as 1% and the Z score is -0.15.

In the case of `CCn1c(-c2cc(NC(=O)c3cccs3)[nH]n2)cc2ccc(OC)cc21`, the “% Inhibition” value amounted to 12% and the Z score is -1.34.

`Cc1ccccc1[C@H]1CN(C2CCCC2)C[C@@H]1C(=O)O`: the “% Inhibition” value is given as 1% and the Z score is on record as -0.1.

Regarding `Cc1ccc(C(=O)N2CCC(c3n[nH]c(=O)o3)CC2)nn1`, the “% Inhibition” value is reported as -8% and the Z score is reported as 0.92.

With `CCCc1nc(C(C)(C)NC(=O)c2sc(-c3ccc(OC)c(OC)c3)nc2C)no1`, the “% Inhibition” value was -10% and the Z score turned out to be 1.09.

Turning to `CCN(CC(N)=O)C(=O)[C@H](C)c1ccc(OC)cc1`, the “% Inhibition” value is -10% and the Z score is on record as 1.32.

On to `CCc1cc(CN2C[C@H](NC(=O)C3CCOCC3)[C@@H](C3CC3)C2)on1`, for which the “% Inhibition” value is -14% and the Z score worked out at 1.39.

As to `COCCC1(NC(=O)c2ccccc2)CCN(S(=O)(=O)c2cccnc2)CC1`, the “% Inhibition” value is recorded as -8% and the Z score was 0.96.

As for `COc1ccc(CC(=O)N2CCC3(CC2)C[C@@H]3NS(C)(=O)=O)cc1`, the “% Inhibition” value is reported as -11% and the Z score was determined as 1.41.

Turning to `Cc1cc(C(=O)N[C@@H](Cc2ccncc2)C(=O)O)c(C)s1`, the “% Inhibition” value is listed as -10% and the Z score was found to be 1.29.

As for `CC(C)OCCC(=O)NC[C@H]1CCC=CO1`, the “% Inhibition” value is -14% and the Z score worked out at 2.72.

As for `O=C(CN1CCC[C@H]1c1nc2ccccc2s1)NCc1ccc2c(c1)OCO2`, the “% Inhibition” value is reported as -5% and the Z score is 0.7.

With `Cc1n[nH]nc1C(=O)NCc1cnn(C(C)C)c1`, the “% Inhibition” value was determined as 0% and the Z score is 0.03.

Take `CO[C@H]1CC[C@H](NC(=O)c2ccc(Cl)c(F)c2)CC1`: the “% Inhibition” value is given as -3% and the Z score is 0.54.

For the compound `Cc1ccc2c(c1C)NC1(CCCCC1)C[C@@H]2C`, the “% Inhibition” value was -5% and the Z score came to 0.41.

On to `CCN(CC(F)(F)F)C(=O)CN1C(=O)OC[C@@H]1c1ccccc1`, for which the “% Inhibition” value worked out at 1% and the Z score was -0.23.

On to `O=C1[C@@H](n2ccnn2)CCN1c1c(F)cccc1F`, for which the “% Inhibition” value is listed as 13% and the Z score is on record as -1.68.

Take `Cc1c(C(=O)N2C[C@H]3CCC[C@@H](C3)C2)ccn1C`: the “% Inhibition” value is recorded as -11% and the Z score stood at 1.74.

Turning to `O=C(NC1CC2CCC(C1)S2(=O)=O)c1ccc(Cl)o1` (stereo not given), the “% Inhibition” value was -19% and the Z score is on record as 2.01.

`Cc1cc(C(=O)N2CC(C)(C)CC[C@@H]2CO)n2nc(C)cc2n1`: the “% Inhibition” value is reported as -18% and the Z score is listed as 1.95.

Turning to `Cc1cn2cnc(/N=C(/NCCO)Nc3ccccc3)c2c(=O)n1C`, the “% Inhibition” value turned out to be 6% and the Z score is -0.74.

As for `CC(C)(C)c1cc(C(=O)Nc2ncc(C3CCNCC3)s2)no1`, the “% Inhibition” value was -2% and the Z score worked out at 0.32.

With `Cc1nc(CCN2CCC[C@H]2c2ccccc2)cs1`, the “% Inhibition” value is -17% and the Z score amounted to 2.44.

In the case of `COc1ccccc1Cn1cnc2cc(C(=O)N3CC[C@@](F)(CO)C3)ccc21`, the “% Inhibition” value is listed as -5% and the Z score turned out to be 0.94.

As for `CC(C)[C@H](Nc1ccc2cc[nH]c2n1)c1nccn1C`, the “% Inhibition” value is -14% and the Z score is recorded as 1.2.

With `O=C1CC[C@@H](C(=O)N2CCN(CCCOCC(F)(F)F)CC2)N1`, the “% Inhibition” value was -7% and the Z score is on record as 0.69.

For the compound `COc1ccc2oc(CNC(=O)Cn3cc(C)cn3)nc2c1`, the “% Inhibition” value is -16% and the Z score turned out to be 2.01.

For `O=C(NCc1nnc2n1CCC2)c1ccccc1OC[C@H]1CCCO1`, the “% Inhibition” value was 6% and the Z score was -0.77.

On to `O=C(Nc1cc(F)c(F)c(F)c1)N1CCC[C@H](n2nccc2C(F)(F)F)C1`, for which the “% Inhibition” value was -1% and the Z score came to 0.06.

For `Fc1ccc(CN2CC[C@H](c3nnc(Cc4ccccc4)o3)C2)cc1F`, the “% Inhibition” value is listed as 27% and the Z score was -3.08.

For the compound `COc1ccc(CNC(=O)N(C)CC(C)C)c(OC)c1`, the “% Inhibition” value is reported as 0% and the Z score stood at 0.03.

Take `CCc1nn(Cc2nsc3ccccc23)c(=O)c(C#N)c1CC`: the “% Inhibition” value was -4% and the Z score is 0.65.

In the case of `CCOC(=O)c1cnn(-c2cccc(C)c2C)c1CN1CCC[C@H](c2nncn2C)C1`, the “% Inhibition” value was 8% and the Z score was -0.95.

As for `CN(c1cc(C(=O)NCCC2=CCCCC2)c2ccccc2n1)C1CCCCC1`, the “% Inhibition” value is -5% and the Z score was found to be 0.65.

In the case of `COc1cccc(C(=O)N2CCN(C(=O)Cc3cnc(C)[nH]c3=O)CC2)c1`, the “% Inhibition” value is -20% and the Z score came out at 2.57.

`Cc1cc(NC(=O)COc2ccc(F)cc2)n(Cc2cccc3ccccc23)n1`: the “% Inhibition” value was -6% and the Z score amounted to 0.84.

`Cc1noc(OCc2c(C)noc2C)n1`: the “% Inhibition” value is given as 6% and the Z score is -1.13.

In the case of `Cc1nc2ccc(CNC(=O)[C@H](N)c3c(C)n[nH]c3C)cc2[nH]1`, the “% Inhibition” value is on record as -7% and the Z score is on record as 1.47.

The values are drawn from ChEMBL document CHEMBL4888484, “Replenishing the malaria drug discovery pipeline: Screening and hit evaluation of the MMV Hit Generation Library 1 (HGL1) against asexual blood stage Plasmodium falciparum ,using a nano luciferase reporter read-out” (2022).
